# The supplement of paper PMC8728848
# Some of the results follow.
# B1: GS13455A-bfa-343-25-343 (Bacteroides fragilis) (protein)
# chain: KDEIQIVDQDTSWQMDNKYIEEDIREQLGIDPFTDLVYLGYYGNPYTQLEAINDLVNTTLVGKNELSFKVKVTKPYKEDIKVNLMKEDKLVTDFPEMAEGIPLFPSENCTFEGGVLKAGELETTVKLTLKDVEKLNNLSGYVMAIKLTMEGSHEHLAIARTRSSYFVKLNLSIRLDNIDSSNKKIEGKGFNKEISFKSDIRPDKLGSLNDGNFTANNWYTSNANNYLTIILPEKQSLKGFRLDTNTSPSGSYMLKSCRVMVETPDGNWVNHGVFDRKSMDGIAYISFKKPVECTKVRFENMMAFNGRFSVDVNEVTAFR
# How the values were obtained:
# Experiment in all cases: glycan array binding signal (z-score within array); higher = stronger binding
# Conditions in all cases: glycan notation: IUPAC condensed, linker removed
# [1] = biological target: Man(a1-2)Man(a1-3)[Man(a1-2)Man(a1-6)]Man(a1-6)[Man(a1-2)Man(a1-2)Man(a1-3)]Man
# Procedure, shortened: (§1)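 Arrays were curated from the Consortium for Functional Glycomics database, 3228 in total, and kept only where the protein sequence was available. Binding is expressed as a within-array Z-score. This score was averaged across arrays of the same protein sequence at different concentrations or buffers and across linkers, and negative values can be read as non-binding.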
# [2] = biological target: Man(a1-2)Man(a1-3)[Man(a1-2)Man(a1-6)]Man(a1-6)[Man(a1-2)Man(a1-2)Man(a1-3)]Man(b1-4)GlcNAc(b1-4)GlcNAc
# Procedure, shortened: as §1
# [3] = biological target: Man(a1-2)Man(a1-3)[Man(a1-6)]Man(a1-6)[Man(a1-2)Man(a1-3)]Man(b1-4)GlcNAc(b1-4)GlcNAc
# Procedure, shortened: as §1
# [4] = biological target: Man(a1-2)Man(a1-6)[Man(a1-3)]Man(a1-6)[Man(a1-2)Man(a1-2)Man(a1-3)]Man
# Procedure, shortened: as §1
# [5] = biological target: Man(a1-2)Man(a1-6)[Man(a1-3)]Man(a1-6)[Man(a1-2)Man(a1-2)Man(a1-3)]Man(b1-4)GlcNAc(b1-4)GlcNAc
# Procedure, shortened: as §1
# Man(a1-3)[Man(a1-6)]Man = biological target: Man(a1-3)[Man(a1-6)]Man
# Procedure, shortened: as §1
# [6] = biological target: Man(a1-3)[Man(a1-6)]Man(a1-6)[Man(a1-2)Man(a1-3)]Man(b1-4)GlcNAc(b1-4)GlcNAc
# Procedure, shortened: as §1
# [7] = biological target: Man(a1-3)[Man(a1-6)]Man(a1-6)[Man(a1-3)]Man
# Procedure, shortened: as §1
# [8] = biological target: Man(a1-3)[Man(a1-6)]Man(a1-6)[Man(a1-3)]Man(b1-4)GlcNAc(b1-4)GlcNAc
# Procedure, shortened: as §1
# [9] = biological target: Man(a1-3)[Man(a1-6)]Man(b1-4)GlcNAc(b1-4)GlcNAc
# Procedure, shortened: as §1
# [10] = biological target: Man(a1-3)[Man(a1-6)]Man(b1-4)GlcNAc(b1-4)[Fuc(a1-6)]GlcNAc
# Procedure, shortened: as §1
# Man(a1-6)Man = biological target: Man(a1-6)Man
# Procedure, shortened: as §1
# Man(b1-4)GlcNAc = biological target: Man(b1-4)GlcNAc
# Procedure, shortened: as §1
# MurNAc(b1-4)GlcNAc = biological target: MurNAc(b1-4)GlcNAc
# Procedure, shortened: as §1
# Neu5Ac(a2-3)Gal = biological target: Neu5Ac(a2-3)Gal
# Procedure, shortened: as §1
# [11] = biological target: Neu5Ac(a2-3)Gal(b1-3)GalNAc
# Procedure, shortened: as §1
# [12] = biological target: Neu5Ac(a2-3)Gal(b1-3)GalNAc(b1-3)Gal(a1-4)Gal(b1-4)Glc
# Procedure, shortened: as §1
# [13] = biological target: Neu5Ac(a2-3)Gal(b1-3)GalNAc(b1-4)[Neu5Ac(a2-3)]Gal(b1-4)Glc
# Procedure, shortened: as §1
# [14] = biological target: Neu5Ac(a2-3)Gal(b1-3)GalNAc(b1-4)[Neu5Ac(a2-8)Neu5Ac(a2-3)]Gal(b1-4)Glc
# Procedure, shortened: as §1
# [15] = biological target: Neu5Ac(a2-3)Gal(b1-3)GalNAc6S
# Procedure, shortened: as §1
# [16] = biological target: Neu5Ac(a2-3)Gal(b1-3)GlcNAc
# Procedure, shortened: as §1
# [17] = biological target: Neu5Ac(a2-3)Gal(b1-3)GlcNAc(b1-2)Man
# Procedure, shortened: as §1
# [18] = biological target: Neu5Ac(a2-3)Gal(b1-3)GlcNAc(b1-2)Man(a1-3)[GlcNAc(b1-4)][Neu5Ac(a2-3)Gal(b1-3)GlcNAc(b1-2)Man(a1-6)]Man(b1-4)GlcNAc(b1-4)GlcNAc
# Procedure, shortened: as §1
# [19] = biological target: Neu5Ac(a2-3)Gal(b1-3)GlcNAc(b1-2)Man(a1-3)[Neu5Ac(a2-3)Gal(b1-3)GlcNAc(b1-2)Man(a1-6)]Man(b1-4)GlcNAc(b1-4)GlcNAc
# Procedure, shortened: as §1
# [20] = biological target: Neu5Ac(a2-3)Gal(b1-3)GlcNAc(b1-3)Gal(b1-3)GlcNAc
# Procedure, shortened: as §1
# [21] = biological target: Neu5Ac(a2-3)Gal(b1-3)GlcNAc(b1-3)Gal(b1-4)GlcNAc
# Procedure, shortened: as §1
# [22] = biological target: Neu5Ac(a2-3)Gal(b1-3)GlcNAc(b1-3)GalNAc
# Procedure, shortened: as §1
# [23] = biological target: Neu5Ac(a2-3)Gal(b1-3)GlcNAc(b1-4)Gal(b1-4)Glc
# Procedure, shortened: as §1
# [24] = biological target: Neu5Ac(a2-3)Gal(b1-3)GlcNAc(b1-6)GalNAc
# Procedure, shortened: as §1
# [25] = biological target: Neu5Ac(a2-3)Gal(b1-3)GlcNAc6S
# Procedure, shortened: as §1
# [26] = biological target: Neu5Ac(a2-3)Gal(b1-3)[Fuc(a1-4)]GlcNAc
# Procedure, shortened: as §1
# [27] = biological target: Neu5Ac(a2-3)Gal(b1-3)[Fuc(a1-4)]GlcNAc(b1-3)Gal(b1-3)[Fuc(a1-4)]GlcNAc
# Procedure, shortened: as §1
# [28] = biological target: Neu5Ac(a2-3)Gal(b1-3)[Fuc(a1-4)]GlcNAc(b1-3)Gal(b1-4)[Fuc(a1-3)]GlcNAc
# Procedure, shortened: as §1
# [29] = biological target: Neu5Ac(a2-3)Gal(b1-3)[GlcNAc(b1-6)]GalNAc
# Procedure, shortened: as §1
# [30] = biological target: Neu5Ac(a2-3)Gal(b1-3)[Neu5Ac(a2-6)]GalNAc
# Procedure, shortened: as §1
# [31] = biological target: Neu5Ac(a2-3)Gal(b1-3)[Neu5Ac(a2-6)]GlcNAc(b1-3)[Fuc(a1-3)[Gal(b1-4)]GlcNAc(b1-6)]Gal(b1-4)Glc
# Procedure, shortened: as §1
# [32] = biological target: Neu5Ac(a2-3)Gal(b1-3)]Neu5Ac(a2-3)Gal(b1-4)]GlcNAc
# Procedure, shortened: as §1
# Neu5Ac(a2-3)Gal(b1-4)Glc = biological target: Neu5Ac(a2-3)Gal(b1-4)Glc
# Procedure, shortened: as §1
# [33] = biological target: Neu5Ac(a2-3)Gal(b1-4)GlcNAc
# Procedure, shortened: as §1
# [34] = biological target: Neu5Ac(a2-3)Gal(b1-4)GlcNAc(b1-2)Man
# Procedure, shortened: as §1
# [35] = biological target: Neu5Ac(a2-3)Gal(b1-4)GlcNAc(b1-2)Man(a1-3)[GlcNAc(b1-4)][Neu5Ac(a2-3)Gal(b1-4)GlcNAc(b1-2)Man(a1-6)]Man(b1-4)GlcNAc(b1-4)GlcNAc
# Procedure, shortened: as §1
# [36] = biological target: Neu5Ac(a2-3)Gal(b1-4)GlcNAc(b1-2)Man(a1-3)[Neu5Ac(a2-3)Gal(b1-4)GlcNAc(b1-2)Man(a1-6)]Man(b1-4)GlcNAc(b1-4)GlcNAc
# Procedure, shortened: as §1
# [37] = biological target: Neu5Ac(a2-3)Gal(b1-4)GlcNAc(b1-2)Man(a1-3)[Neu5Ac(a2-3)Gal(b1-4)GlcNAc(b1-2)Man(a1-6)]Man(b1-4)GlcNAc(b1-4)[Fuc(a1-6)]GlcNAc
# Procedure, shortened: as §1
# [38] = biological target: Neu5Ac(a2-3)Gal(b1-4)GlcNAc(b1-2)Man(a1-3)[Neu5Ac(a2-6)Gal(b1-4)GlcNAc(b1-2)Man(a1-6)]Man(b1-4)GlcNAc(b1-4)GlcNAc
# Procedure, shortened: as §1
# [39] = biological target: Neu5Ac(a2-3)Gal(b1-4)GlcNAc(b1-2)[Neu5Ac(a2-3)Gal(b1-4)GlcNAc(b1-4)]Man(a1-3)[GlcNAc(b1-4)][Neu5Ac(a2-3)Gal(b1-4)GlcNAc(b1-2)[Neu5Ac(a2-3)Gal(b1-4)GlcNAc(b1-6)]Man(a1-6)]Man(b1-4)GlcNAc(b1-4)GlcNAc
# Procedure, shortened: as §1
binder,measurement,setting,value
B1,glycan array binding signal (z-score),[1],-0.701
same,glycan array binding signal (z-score),[2],-0.034
same,glycan array binding signal (z-score),[3],-0.408
same,glycan array binding signal (z-score),[4],0.988
same,glycan array binding signal (z-score),[5],-0.88
same,glycan array binding signal (z-score),Man(a1-3)[Man(a1-6)]Man,0.245
same,glycan array binding signal (z-score),[6],-0.013
same,glycan array binding signal (z-score),[7],-0.129
same,glycan array binding signal (z-score),[8],-0.501
same,glycan array binding signal (z-score),[9],-0.715
same,glycan array binding signal (z-score),[10],-0.639
same,glycan array binding signal (z-score),Man(a1-6)Man,0.205
same,glycan array binding signal (z-score),Man(b1-4)GlcNAc,0.213
same,glycan array binding signal (z-score),MurNAc(b1-4)GlcNAc,-0.095
same,glycan array binding signal (z-score),Neu5Ac(a2-3)Gal,0.476
same,glycan array binding signal (z-score),[11],0.08
same,glycan array binding signal (z-score),[12],1.31
same,glycan array binding signal (z-score),[13],0.544
same,glycan array binding signal (z-score),[14],0.711
same,glycan array binding signal (z-score),[15],-0.524
same,glycan array binding signal (z-score),[16],0.555
same,glycan array binding signal (z-score),[17],0.354
same,glycan array binding signal (z-score),[18],-0.756
same,glycan array binding signal (z-score),[19],0.088
same,glycan array binding signal (z-score),[20],-0.78
same,glycan array binding signal (z-score),[21],0.373
same,glycan array binding signal (z-score),[22],0.126
same,glycan array binding signal (z-score),[23],-0.201
same,glycan array binding signal (z-score),[24],-0.483
same,glycan array binding signal (z-score),[25],1.08
same,glycan array binding signal (z-score),[26],0.492
same,glycan array binding signal (z-score),[27],0.457
same,glycan array binding signal (z-score),[28],0.631
same,glycan array binding signal (z-score),[29],-0.522
same,glycan array binding signal (z-score),[30],-0.464
same,glycan array binding signal (z-score),[31],-0.225
same,glycan array binding signal (z-score),[32],0.077
same,glycan array binding signal (z-score),Neu5Ac(a2-3)Gal(b1-4)Glc,0.051
same,glycan array binding signal (z-score),[33],-0.152
same,glycan array binding signal (z-score),[34],-0.205
same,glycan array binding signal (z-score),[35],-0.237
same,glycan array binding signal (z-score),[36],-0.186
same,glycan array binding signal (z-score),[37],0.466
same,glycan array binding signal (z-score),[38],-0.186
same,glycan array binding signal (z-score),[39],-0.395
